Measured values: US6544989B2, “Benzazoles: benzoxazole, benzthiazole and benzimidazole derivatives” (Syngenta Limited, priority 1998, dated 2003)

Tests used:
Details in all cases: 500 ppm by weight; mortality assessed usually between three and five days after treatment
Heliothis virescens = system: Heliothis virescens
Method: (§1) The test procedure adopted with regard to each pest, except nematodes, was essentially the same and composed supporting a number of the pests on a medium which was usually a substrate, a host plant or a foodstuff on which the pests feed, and treating either or both the medium and the pests with a composition. Pest mortality was assessed usually between three and five days after treatment Knockdown of housefly (Musca domestica) was assessed 15 minutes after treatment

Musca domestica = system: Musca domestica
Method: as §1

Tetranychus urticae = system: Tetranychus urticae
Method: as §1

Myzus persicae = assay: Pesticidal test, Myzus persicae mortality
Method: as §1

Spodoptera exigua = assay: Pesticidal test, Spodoptera exigua mortality
Method: as §1

Compound	HELIVI = Heliothis virescens, grading of mortality (score) (Heliothis virescens)	MUSCDO AK = Musca domestica (kill), grading of mortality (score) (Musca domestica)	TETRUR = Tetranychus urticae, grading of mortality (score) (Tetranychus urticae)	MYZUPE = Myzus persicae, grading of mortality (score) (Myzus persicae)	LAPHEG = Spodoptera exigua, grading of mortality (score) (Spodoptera exigua)
Cc1nsc(NC(=O)Cc2ccc3ocnc3c2)c1Cl [1(A3)]	0 (0 indicates less than 40% mortality)	0 (0 indicates less than 40% mortality)	0 (0 indicates less than 40% mortality)	5 (5 indicates 40-79% mortality)	0 (0 indicates less than 40% mortality)
Cc1nc2cc(CC(=O)Nc3snc(C)c3Cl)ccc2o1 [2(A3)]	5 (5 indicates 40-79% mortality)	0 (0 indicates less than 40% mortality)	0 (0 indicates less than 40% mortality)	9 (9 indicates 80-100% mortality)	0 (0 indicates less than 40% mortality)
Cc1nc2cc(CC(=O)Nc3snc(C)c3Cl)ccc2s1 [2(A13)]	0 (0 indicates less than 40% mortality)	0 (0 indicates less than 40% mortality)	0 (0 indicates less than 40% mortality)	0 (0 indicates less than 40% mortality)	0 (0 indicates less than 40% mortality)
Cc1nc2ccc(CC(=O)Nc3snc(C)c3Cl)cc2o1 [2(A23)]	0 (0 indicates less than 40% mortality)	0 (0 indicates less than 40% mortality)	0 (0 indicates less than 40% mortality)	0 (0 indicates less than 40% mortality)	0 (0 indicates less than 40% mortality)
Cc1nc2ccc(CC(=O)Nc3snc(C)c3Cl)cc2[nH]1 [2(A43)]	0 (0 indicates less than 40% mortality)	0 (0 indicates less than 40% mortality)	0 (0 indicates less than 40% mortality)	0 (0 indicates less than 40% mortality)	0 (0 indicates less than 40% mortality)
Cc1nc2cc(CC(=O)N(C)c3snc(C)c3Cl)ccc2o1 [2(B3)]	0 (0 indicates less than 40% mortality)	0 (0 indicates less than 40% mortality)	0 (0 indicates less than 40% mortality)	0 (0 indicates less than 40% mortality)	0 (0 indicates less than 40% mortality)
CCN(C(=O)Cc1ccc2oc(C)nc2c1)c1snc(C)c1Cl [2(C3)]	0 (0 indicates less than 40% mortality)	0 (0 indicates less than 40% mortality)	9 (9 indicates 80-100% mortality)	5 (5 indicates 40-79% mortality)	5 (5 indicates 40-79% mortality)
CCCN(C(=O)Cc1ccc2oc(C)nc2c1)c1snc(C)c1Cl [2(D3)]	0 (0 indicates less than 40% mortality)	0 (0 indicates less than 40% mortality)	0 (0 indicates less than 40% mortality)	0 (0 indicates less than 40% mortality)	0 (0 indicates less than 40% mortality)
C=CCN(C(=O)Cc1ccc2oc(C)nc2c1)c1snc(C)c1Cl [2(E3)]	0 (0 indicates less than 40% mortality)	0 (0 indicates less than 40% mortality)	0 (0 indicates less than 40% mortality)	0 (0 indicates less than 40% mortality)	0 (0 indicates less than 40% mortality)
C#CCN(C(=O)Cc1ccc2oc(C)nc2c1)c1snc(C)c1Cl [2(F3)]	0 (0 indicates less than 40% mortality)	0 (0 indicates less than 40% mortality)	0 (0 indicates less than 40% mortality)	9 (9 indicates 80-100% mortality)	0 (0 indicates less than 40% mortality)
COCN(C(=O)Cc1ccc2oc(C)nc2c1)c1snc(C)c1Cl [2(K3)]	0 (0 indicates less than 40% mortality)	0 (0 indicates less than 40% mortality)	9 (9 indicates 80-100% mortality)	9 (9 indicates 80-100% mortality)	0 (0 indicates less than 40% mortality)
CCOCN(C(=O)Cc1ccc2oc(C)nc2c1)c1snc(C)c1Cl [2(L3)]	9 (9 indicates 80-100% mortality)	0 (0 indicates less than 40% mortality)	9 (9 indicates 80-100% mortality)	9 (9 indicates 80-100% mortality)	5 (5 indicates 40-79% mortality)
COCCOCN(C(=O)Cc1ccc2oc(C)nc2c1)c1snc(C)c1Cl [2(M3)]	0 (0 indicates less than 40% mortality)	0 (0 indicates less than 40% mortality)	0 (0 indicates less than 40% mortality)	5 (5 indicates 40-79% mortality)	0 (0 indicates less than 40% mortality)
CCc1nc2cc(CC(=O)Nc3snc(C)c3Cl)ccc2o1 [3(A3)]	9 (9 indicates 80-100% mortality)	9 (9 indicates 80-100% mortality)	5 (5 indicates 40-79% mortality)	9 (9 indicates 80-100% mortality)	5 (5 indicates 40-79% mortality)
CCCc1nc2cc(CC(=O)Nc3snc(C)c3Cl)ccc2o1 [4(A3)]	9 (9 indicates 80-100% mortality)	9 (9 indicates 80-100% mortality)	5 (5 indicates 40-79% mortality)	9 (9 indicates 80-100% mortality)	5 (5 indicates 40-79% mortality)
CCCc1nc2ccc(CC(=O)Nc3snc(C)c3Cl)cc2o1 [4(A23)]	0 (0 indicates less than 40% mortality)	0 (0 indicates less than 40% mortality)	0 (0 indicates less than 40% mortality)	9 (9 indicates 80-100% mortality)	0 (0 indicates less than 40% mortality)
Cc1nsc(NC(=O)Cc2ccc3nc(C(C)(C)C)[nH]c3c2)c1Cl [9(A43)]	0 (0 indicates less than 40% mortality)	0 (0 indicates less than 40% mortality)	5 (5 indicates 40-79% mortality)	9 (9 indicates 80-100% mortality)	
Cc1nsc(N(C(=O)Cc2ccc3oc(CC(C)(C)C)nc3c2)C(C)C)c1Cl [15(N3)]	0 (0 indicates less than 40% mortality)	0 (0 indicates less than 40% mortality)	0 (0 indicates less than 40% mortality)	0 (0 indicates less than 40% mortality)	
Cc1nsc(NC(=O)Cc2ccc3oc(C4CCCCC4)nc3c2)c1Cl [35(A3)]	5 (5 indicates 40-79% mortality)	0 (0 indicates less than 40% mortality)	9 (9 indicates 80-100% mortality)	9 (9 indicates 80-100% mortality)	
Cc1nsc(NC(=O)Cc2ccc3oc(C(F)(F)C(F)(F)C(F)(F)F)nc3c2)c1Cl [80(A3)]	0 (0 indicates less than 40% mortality)	0 (0 indicates less than 40% mortality)	0 (0 indicates less than 40% mortality)	0 (0 indicates less than 40% mortality)	
Cc1nsc(NC(=O)Cc2ccc3oc(CC#N)nc3c2)c1Cl [113(A3)]	0 (0 indicates less than 40% mortality)	0 (0 indicates less than 40% mortality)	9 (9 indicates 80-100% mortality)	0 (0 indicates less than 40% mortality)	
Cc1nsc(NC(=O)Cc2ccc3oc(-c4ccncc4)nc3c2)c1Cl [339(A3)]	0 (0 indicates less than 40% mortality)	0 (0 indicates less than 40% mortality)	9 (9 indicates 80-100% mortality)	0 (0 indicates less than 40% mortality)	
